# Measurements: PMC4336329 (PLoS ONE, 2015)
# Screen size: about 310,000 compounds; about 14,000 (4.5%) showed an effect of 50% or more. The effect is printed as a negative number. The list shows a part of the results.
# Molecular target: human ether-à-go-go-related gene (hERG) potassium channel (human, UniProt Q12809)
# Experiment: primary screen, population patch clamp on CHO cells stably expressing hERG
# 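Also: peak tail current of the secondary pulse compared with the same well before compound.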
# Chain of human ether-à-go-go-related gene (hERG) potassium channel (Q12809 whole entry, looked up): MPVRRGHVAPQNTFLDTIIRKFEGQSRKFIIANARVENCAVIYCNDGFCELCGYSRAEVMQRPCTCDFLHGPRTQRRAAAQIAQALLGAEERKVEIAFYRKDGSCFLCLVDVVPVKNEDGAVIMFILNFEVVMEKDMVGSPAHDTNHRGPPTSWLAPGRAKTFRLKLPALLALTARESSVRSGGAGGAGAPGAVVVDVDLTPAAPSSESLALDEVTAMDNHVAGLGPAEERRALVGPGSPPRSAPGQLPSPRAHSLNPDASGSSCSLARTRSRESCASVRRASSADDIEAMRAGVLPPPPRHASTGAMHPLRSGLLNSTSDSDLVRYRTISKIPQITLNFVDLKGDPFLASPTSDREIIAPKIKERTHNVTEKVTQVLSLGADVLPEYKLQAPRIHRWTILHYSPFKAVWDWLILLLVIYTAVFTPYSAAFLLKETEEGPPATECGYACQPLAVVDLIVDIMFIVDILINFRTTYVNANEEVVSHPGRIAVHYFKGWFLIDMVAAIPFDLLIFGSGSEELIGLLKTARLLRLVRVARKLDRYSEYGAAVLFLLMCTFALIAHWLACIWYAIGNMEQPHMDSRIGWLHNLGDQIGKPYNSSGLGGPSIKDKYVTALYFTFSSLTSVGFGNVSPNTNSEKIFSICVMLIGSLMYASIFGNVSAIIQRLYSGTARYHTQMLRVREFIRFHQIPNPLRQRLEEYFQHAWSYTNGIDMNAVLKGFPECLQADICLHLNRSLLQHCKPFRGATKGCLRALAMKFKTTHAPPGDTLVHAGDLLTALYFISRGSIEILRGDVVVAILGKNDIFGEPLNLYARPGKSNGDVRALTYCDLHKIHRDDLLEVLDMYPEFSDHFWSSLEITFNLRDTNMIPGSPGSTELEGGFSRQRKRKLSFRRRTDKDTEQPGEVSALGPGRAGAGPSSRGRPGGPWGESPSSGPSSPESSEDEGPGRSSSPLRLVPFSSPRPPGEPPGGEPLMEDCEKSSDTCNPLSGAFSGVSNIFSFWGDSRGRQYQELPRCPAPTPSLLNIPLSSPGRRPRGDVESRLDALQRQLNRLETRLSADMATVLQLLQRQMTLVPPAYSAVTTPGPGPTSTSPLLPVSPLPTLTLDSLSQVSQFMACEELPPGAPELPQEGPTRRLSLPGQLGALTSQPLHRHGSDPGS
row,Compound,"hERG current change (%, negative = inhibition) at 10uM [%]"
1,COc1ccc(NC(=O)/C(=C\c2cccnc2)NC(=O)c2cccs2)cc1,-34.6
2,COCc1cc(C)nc(OCC(=O)N/N=C/c2ccccc2O)c1C#N,20
3,Clc1ccc(CN2CCCCCC2)cc1Cl,-7.66
4,Nc1ccc2[nH]ncc2c1,-3.76
5,CCOC(=O)N1CCN(S(=O)(=O)c2c(C)[nH]c(=O)[nH]c2=O)CC1,-17.6
6,CC(=O)Nc1ccc(S(=O)(=O)NCc2ccc(C(=O)NCCN3CCCCCC3)cc2)cc1,-0.81
7,C[C@H](NC(=O)Nc1cccc(C(F)(F)F)c1)C(=O)O,0.0629
8,CC(C)Oc1ccc(CCc2nnc(SCC(=O)O)n2-c2ccccc2)cc1,11.5
9,[Br-].c1ccc2c(C[n+]3csc4ccccc43)cccc2c1,9.3
10,Cc1cccc(OCC(=O)NC(Cc2c[nH]c3ccccc23)C(=O)O)c1C (centres unmarked),17
11,CCN1C(=O)c2ccccc2S(=O)(=O)c2ccc(C(=O)NC(C)C)cc21,-2.53
12,O=C(NN=C1CCCCCC1)c1c[nH]c2ccccc12,20.4
13,COCCCC1CCN(Cc2nc(-c3ccccc3)no2)CC1,-28.3
14,CCOC(=O)C1CCN(S(=O)(=O)c2ccc(C(C)(C)C)cc2)CC1,8.32
15,NC(=S)n1[nH]c(-c2ccccc2)c(N=Nc2ccccc2C(=O)N2CCOCC2)c1=O,-29.3
16,O=C(CC1C(=O)NCCN1Cc1ccccc1C(F)(F)F)NC1CCCCCC1 (centres unmarked),11.3
17,CCCC(C)C(=O)Nc1ccc(S(=O)(=O)Nc2nccs2)cc1 (centres unmarked),18.3
18,Cc1nnsc1-c1onc(C)c1C(=O)Nc1cc(Cl)cc(Cl)c1,16.5
19,CCS(=O)(=O)N1CCN(c2ccc(Cl)cc2[N+](=O)[O-])CC1,-48.3
20,CCOc1ccc(-c2nc(CSc3nnc(N)s3)cs2)cc1OC,-2.02
21,COc1ccc(C(=O)Cc2cnn(-c3ccccc3)c2)c(O)c1,11.5
22,CCc1cc(C(=O)Cc2ccccn2)c(O)cc1O,14.4
23,O=c1cc(C(F)(F)F)[nH]c2ccc(OC(F)(F)F)cc12,8.47

row,Compound,"hERG current change (%, negative = inhibition) at 10uM [%]"
1,COc1ccc(NS(=O)(=O)c2cc3c(cc2C)N(C)CCO3)cc1,-10.5
2,CCN(CC(=O)Nc1ccccc1OC)C(=O)c1ccccc1Sc1ccccc1C#N,8.48
3,COc1ccc(S(=O)(=O)Nc2cc3c4c(c2)CCC(=O)N4CCC3)cc1C,-27.2
4,C/C(=N\NC(=O)CSCc1ccccc1Cl)c1cc(O)ccc1O,-17.7
5,Nc1nn2c(C(F)(F)F)cc(=O)[nH]c2c1N=Nc1cccc(F)c1,6.07
6,CCC(=O)c1ccc(OCC(=O)OCC(=O)NCC2CCCCC2)cc1,18.7
7,Cc1cccc(C(=O)Nc2ccc(S(=O)(=O)N3CCOCC3)cc2C)c1,18.6
8,Cn1c(=O)c(Oc2ccc(Cl)cc2)c(O)c2ccccc21,24.8
9,Cc1cccc(OCC(=O)O/N=C(\N)Cc2ccc(Cl)cc2)c1,11
10,CCOc1ccc(N(CC(=O)NCc2ccc(F)cc2)C(=O)CCC(=O)Nc2nccs2)cc1,9.88
11,CN(C)c1ncnc2c1NC1=C(S2)C(=NCCCC(=O)O)CC(C)(C)C1,9.4
12,COc1ccc(NC(=O)c2ccccc2-c2ccccc2)cc1,8.44
13,O=C(Nc1ccc(Cl)cc1)Nc1cccc2nsnc12,-2.9
14,O=C(CSc1ncccc1C(=O)O)NC1CCCCC1,32.2
15,CCC(C(=O)NC1CCCC1)N(C(=O)Cn1nnc(-c2ccc(C)o2)n1)c1ccc(OC)c(OC)c1 (centres unmarked),-3.19
16,O=C(COC(=O)CNC(=O)C12CC3CC(CC(C3)C1)C2)Nc1ccccc1,-18.6
17,COC(=O)c1sccc1NC(=O)Cc1ccc(OC)c(OC)c1,1.46
18,Nc1ncccc1C(=O)OCC(=O)N1CCN(S(=O)(=O)c2ccc(Cl)cc2)CC1,-16.6
19,O=C(CN1C(=O)NC2(CCc3ccccc32)C1=O)c1ccc(Br)s1 (centres unmarked),12.7
20,CN1C(=O)c2ccc(NC(=O)c3cccc4ccccc34)cc2C1=O,19.9
21,O=C(CC1Nc2cccc3cccc(c23)NC1=O)Nc1ccc(F)cc1 (centres unmarked),-17
22,O=C(/C=C/c1ccccc1Cl)OCC(=O)c1ccc[nH]1,7.85
23,CCOc1ccc(C2/C(=C(/O)c3ccc(OC)cc3)C(=O)C(=O)N2c2cc(C)on2)cc1OC (centres unmarked),3.64

row,Compound,"hERG current change (%, negative = inhibition) at 10uM [%]"
1,Cc1ccc(CNC(=O)C2CCN(c3nn4c(=O)cc(C)nc4s3)CC2)cc1,-41.9
2,O=C(/C=C/c1ccc(Br)cc1)c1ccc(NC2=NCCCS2)cc1,-1.51
3,O=C(/C=C/c1ccccc1)N1CCN(c2cccc(Cl)n2)CC1,-0.15
4,COc1ccc(C2=NCCn3nc4cc(OC)ccc4c32)cc1,-5.29
5,O=C1CCCC(=O)N1c1ccc(O)cc1,2.73
6,CNC(=O)NC(=O)CSc1cccc(C(F)(F)F)c1,2.56
7,CC(=O)Nc1ccc(N(C(=O)CNC(=O)c2cccs2)C(C(=O)NCC2CCCO2)c2ccccc2)cc1 (centres unmarked),13.2
8,COC(=O)c1ccc(NCN2C(=O)C3C4CCC(C4)C3C2=O)cc1 (centres unmarked),-12
9,CCCCn1c(SCC(=O)N2CCCc3ccccc32)nc2c1c(=O)n(C)c(=O)n2C,-47.6
10,O=C1c2cccnc2C(=O)N1CO,9.77
11,COc1ccc(/C=C/c2nnc(NC(=O)c3ccco3)s2)cc1,8.89
12,O=C(COC(=O)CCCOc1ccc(Cl)cc1Cl)NCc1ccccc1,4.2
13,NC(=S)N/N=C/c1ccc(C23CC4CC(CC(C4)C2)C3)cc1,23.2
14,Cc1ccc(N(C)C(=O)C2CCN(S(=O)(=O)c3ccc4c(c3)oc(=O)n4C)CC2)cc1,1.6
15,CC(C)C(=O)NC(=S)Nc1ccc(S(=O)(=O)N(C)C)cc1,-8.89
16,N#CCSC1=Nc2ccccc2C2=NC(CCC(=O)N3CCN(c4ccccc4)CC3)C(=O)N12 (centres unmarked),-30.4
17,CCNC(=S)NNC(=O)CCn1cc(C)cn1,20.7
18,CC(C)N(Cc1ccccc1)C(=S)NCCN1CCOCC1,14.9
19,Cc1cc(C)c2c(C)c(C(=O)NCc3ccncc3)oc2c1,-7.22
20,O=C(O)CCc1ccc(-c2cccs2)n1CC1CCCO1 (centres unmarked),-4.68
21,O=C(Cc1ccc(Br)cc1)N1CCN(c2ccccn2)CC1,-24.2
22,COC(=O)CC1=C(C(=O)OC)C(c2ccncc2)C(C#N)=C(N)O1 (centres unmarked),1.19
23,CC1=C(C(=O)Nc2ccccc2)C(c2ccco2)C(C#N)=C(SCc2ccccc2)N1 (centres unmarked),10.9

row,Compound,"hERG current change (%, negative = inhibition) at 10uM [%]"
1,O=C(NCCNC(=O)c1ccco1)c1ccc(Cl)c(Cl)c1,-10.5
2,COc1ccc(/C=N/NC(=O)c2ccn[nH]2)cc1Cn1nc(C)c([N+](=O)[O-])c1C,13.8
3,Cc1c(C(=O)Nc2cccc(C(F)(F)F)c2)oc2ccc(S(=O)(=O)N3CCOCC3)cc12,-0.856
4,Cc1ccccc1OCC(=O)OCC(=O)Nc1ccc(N2CCOCC2)cc1,9.51
5,C/C(=N\NC(=S)Nc1ccc(C)cc1)c1cccc(N)c1,-24.7
6,O=C(O)Cc1coc(-c2ccc(F)cc2)n1,-0.918
7,CN(C)CCNC(C(=O)Nc1cccc(S(=O)(=O)N2CCOCC2)c1)c1ccccc1 (centres unmarked),-70.3
8,Cn1c(Cn2cnc([N+](=O)[O-])n2)nnc1SCC(=O)Nc1ccccc1,1.69
9,CCN1CCN(Cc2ccc(NC(=O)c3ccc(C)c(/C=C/c4cnc(Nc5cc(N6CCNCC6)nc(C)n5)cn4)c3)cc2C(F)(F)F)CC1.O=C(O)C(F)(F)F,-7.18
10,Fc1ccc(C2=Nn3c(Cc4ccccc4)nnc3SC2)cc1,-21.7
11,COc1ccc(-c2cc3ccccc3n2CC(O)CN2CCN(CCO)CC2)cc1 (centres unmarked),-29.9
12,Cc1nn(C(=O)c2cccs2)c(N)c1-c1ccccc1,3.51
13,CC1CCCCN1C(=O)CSc1nnc(-c2ccco2)n1CC1CCCO1 (centres unmarked),3.72
14,C/C(=C\C(=O)OCC(=O)NCc1ccccc1)C(=O)OCC(=O)NCc1ccccc1,18.8
15,CCN1CCC[C@H]1CNC(=O)c1c(O)c(Cl)cc(Cl)c1OC,-10.4
16,O=C1CCN(C(=O)C(Cl)Cl)N1,10.6
17,O=C(NC1CCCCC1)c1cccc(S(=O)(=O)N2CCOCC2)c1,-4.59
18,COc1ccc(/C=C(\NC(=O)c2ccc(C)cc2)C(=O)Nc2c(C)n(C)n(-c3ccccc3)c2=O)cc1,-17.3
19,CCN(CC)C(=O)COc1coc(CN2CCN(Cc3ccccc3)CC2)cc1=O,-12
20,Cc1ccc(NC(=O)c2cc(-c3ccc(C)c(C)c3O)n[nH]2)cc1C,24.4
